Read-outs that look alike come from different tables or passages of the source. These are yes or no findings as the source states them, for the method shown. Some entries that bind do so weakly or less than the wild type. For part of these data: Tags and fused reporters may be left off the sequences shown.
Experiments:
Assay in all cases: flow cytometry on cells; only the binder purified
[1] = molecular target: CX3CR1 chemokine receptor on 293T-CX3CR1 transfectants (human (cDNA from NK cells of healthy donors)) (UniProt P49238)
[2] = molecular target: CCR5 on U87-CCR5 transfected cells (UniProt P51681)
[3] = molecular target: CX3CR1 chemokine receptor on 293T-CX3CR1 transfectants (human (cDNA from NK cells of healthy donors)) (UniProt P49238); remark: listed apart in the source
[4] = molecular target: T1, CXCR1 chemokine receptor on 293T-CXCR1 transfectants (human (cDNA from HL60 cells)) (UniProt P25024)
T1 sequence: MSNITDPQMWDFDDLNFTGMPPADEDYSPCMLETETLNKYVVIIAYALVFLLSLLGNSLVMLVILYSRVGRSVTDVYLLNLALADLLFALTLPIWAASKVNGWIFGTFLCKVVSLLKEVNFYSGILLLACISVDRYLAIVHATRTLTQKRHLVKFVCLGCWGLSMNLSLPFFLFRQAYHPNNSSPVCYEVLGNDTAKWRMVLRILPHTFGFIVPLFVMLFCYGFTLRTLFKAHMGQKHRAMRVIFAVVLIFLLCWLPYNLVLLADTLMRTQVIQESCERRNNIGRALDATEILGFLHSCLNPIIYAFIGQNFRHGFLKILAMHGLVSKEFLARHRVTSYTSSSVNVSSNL

Chains of the proteins cited; added tags and fusions are not shown. Residues count along the entry.
UniProt P49238: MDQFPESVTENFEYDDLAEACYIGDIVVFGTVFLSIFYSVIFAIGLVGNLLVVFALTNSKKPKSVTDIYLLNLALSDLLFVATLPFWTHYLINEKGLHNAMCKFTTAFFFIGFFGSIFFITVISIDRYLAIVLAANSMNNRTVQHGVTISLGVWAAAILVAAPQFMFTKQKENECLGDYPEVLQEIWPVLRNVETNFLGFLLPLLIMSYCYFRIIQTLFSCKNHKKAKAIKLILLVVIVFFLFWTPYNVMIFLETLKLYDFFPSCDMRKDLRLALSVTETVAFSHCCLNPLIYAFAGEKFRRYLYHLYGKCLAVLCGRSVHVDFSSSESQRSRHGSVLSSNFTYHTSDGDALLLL
UniProt P51681: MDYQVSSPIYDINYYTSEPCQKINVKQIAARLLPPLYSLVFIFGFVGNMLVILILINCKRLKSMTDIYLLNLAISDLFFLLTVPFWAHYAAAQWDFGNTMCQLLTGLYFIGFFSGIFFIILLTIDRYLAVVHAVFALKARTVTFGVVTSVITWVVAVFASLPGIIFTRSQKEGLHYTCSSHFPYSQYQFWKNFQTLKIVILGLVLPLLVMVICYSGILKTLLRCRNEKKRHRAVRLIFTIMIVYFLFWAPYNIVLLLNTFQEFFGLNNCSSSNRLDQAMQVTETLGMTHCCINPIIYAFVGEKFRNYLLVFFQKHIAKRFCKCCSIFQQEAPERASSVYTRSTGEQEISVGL
UniProt P78423, residues 25-341: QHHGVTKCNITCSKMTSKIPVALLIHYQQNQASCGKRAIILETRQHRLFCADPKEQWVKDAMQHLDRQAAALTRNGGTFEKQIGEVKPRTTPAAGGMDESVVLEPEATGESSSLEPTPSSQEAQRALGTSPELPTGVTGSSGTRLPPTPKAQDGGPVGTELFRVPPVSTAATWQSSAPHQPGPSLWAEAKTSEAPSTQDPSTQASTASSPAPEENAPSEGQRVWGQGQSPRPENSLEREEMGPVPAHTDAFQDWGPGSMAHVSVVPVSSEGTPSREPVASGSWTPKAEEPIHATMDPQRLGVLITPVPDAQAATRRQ

With “Fck-Ig (Fractalkine fused to human IgG) (from UniProt P78423) (Fc fusion)” the binding [1] was “binds”.

B1: recombinant viral MIP-II (rvMIP-II) (ligand, UniProt Q98157 21-94)
chain: GDTLGASWHRPDKCCLGYQKRPLPQVLLSSWYPTSQLCSKPGVIFLTKRGRQVCADKSKDWVKKLMQQLPVTAR
In the case of B1, the binding [2] is reported as “binds” and the binding [3] is reported as “binds”.

B2: vMIP-II-Ig (KSHV vMIP-II fused to the Fc of human IgG1) (Fc fusion, UniProt Q98157 21-94)
chain: GDTLGASWHRPDKCCLGYQKRPLPQVLLSSWYPTSQLCSKPGVIFLTKRGRQVCADKSKDWVKKLMQQLPVTAR
B2 was tested, and the binding [2] was “binds”, the binding [4] was “no binding” and the binding [3] was “binds”.

Source: article PMC3744409
